Hit rate of the full screen: of about 310,000 compounds, about 14,000 (4.5%) showed an effect of 50% or more. Effects have a minus sign here. The list shows a part of the results.
Molecular target: human ether-à-go-go-related gene (hERG) potassium channel (human, UniProt Q12809)
Experiment: primary screen, population patch clamp on CHO cells stably expressing hERG
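Further: peak tail current of the secondary pulse compared with the same well before compound.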

Chain of human ether-à-go-go-related gene (hERG) potassium channel (Q12809 whole entry, looked up): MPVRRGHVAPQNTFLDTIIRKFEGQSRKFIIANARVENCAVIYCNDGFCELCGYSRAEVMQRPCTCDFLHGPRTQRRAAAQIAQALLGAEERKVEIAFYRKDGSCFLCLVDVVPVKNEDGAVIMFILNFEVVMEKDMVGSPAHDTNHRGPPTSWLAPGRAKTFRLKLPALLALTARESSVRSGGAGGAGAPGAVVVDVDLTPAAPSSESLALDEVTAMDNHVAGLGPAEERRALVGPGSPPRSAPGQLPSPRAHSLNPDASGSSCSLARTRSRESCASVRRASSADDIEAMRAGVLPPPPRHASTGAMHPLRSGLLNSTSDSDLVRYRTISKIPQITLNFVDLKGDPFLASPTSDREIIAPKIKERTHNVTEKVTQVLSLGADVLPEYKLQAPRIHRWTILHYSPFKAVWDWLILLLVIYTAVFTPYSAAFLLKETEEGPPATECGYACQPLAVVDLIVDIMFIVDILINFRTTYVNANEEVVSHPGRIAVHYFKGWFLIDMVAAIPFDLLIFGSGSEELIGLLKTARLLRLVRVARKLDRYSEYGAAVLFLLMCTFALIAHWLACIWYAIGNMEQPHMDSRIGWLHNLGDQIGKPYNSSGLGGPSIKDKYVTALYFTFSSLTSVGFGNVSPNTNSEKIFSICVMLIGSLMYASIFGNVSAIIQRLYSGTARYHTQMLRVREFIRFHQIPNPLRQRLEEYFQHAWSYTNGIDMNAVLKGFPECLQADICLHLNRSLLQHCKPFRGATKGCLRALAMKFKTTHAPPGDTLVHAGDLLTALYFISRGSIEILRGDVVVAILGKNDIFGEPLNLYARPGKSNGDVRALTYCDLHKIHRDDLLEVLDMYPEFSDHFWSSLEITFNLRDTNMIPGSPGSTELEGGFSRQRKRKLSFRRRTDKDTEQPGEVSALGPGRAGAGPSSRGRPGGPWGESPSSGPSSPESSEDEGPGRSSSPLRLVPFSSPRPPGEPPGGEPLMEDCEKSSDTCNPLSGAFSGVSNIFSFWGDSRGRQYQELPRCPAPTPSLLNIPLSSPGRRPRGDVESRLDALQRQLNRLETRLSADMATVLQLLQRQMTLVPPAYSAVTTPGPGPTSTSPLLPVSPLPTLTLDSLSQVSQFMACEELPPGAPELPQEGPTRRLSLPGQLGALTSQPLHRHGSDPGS

Compared with Cc1ccc(C(=O)NCCOc2cccc3cccnc23)cc1Cl, Cc1ccc(OCCNC(=O)c2ccccc2N)cc1 is higher in “hERG current change (%, negative = inhibition) at 10uM” value: -7.01% for the first, -0.662% for the second.

Compared with CC(C)COC(=O)N1CCCC1C(=O)Nc1nccs1 (stereo not shown), Cc1occc1C(=O)NC1CCCN(Cc2ccc(CC(C)C)cc2)C1 (stereo not shown) is lower in “hERG current change (%, negative = inhibition) at 10uM” value: 4.51% for the first, -38% for the second.

Going from CN1CC(=O)N(CCOc2ccccc2)C1=O to COC(=O)CC1(Cc2ccccc2)C(=O)NC(=O)NC1=O, the “hERG current change (%, negative = inhibition) at 10uM” value falls from 23.7% to 15.9%.

Compared with CC1(C)Cc2c(C#N)c(NC3CCCCC3)nc(-c3ccco3)c2CO1, CCOc1ccc(C(C(=O)NC2CCCCC2)N(C(=O)c2ccccn2)c2cccnc2)cc1 (stereo not shown) is higher in “hERG current change (%, negative = inhibition) at 10uM” value: 5.67% for the first, 7.4% for the second.

Compared with COc1cccc(NC(=O)C(C)NS(=O)(=O)c2ccc(Br)cc2)c1 (stereo not shown), O=C(COc1ccc(Br)cc1)Nc1ccc(S(=O)(=O)Nc2ccccn2)cc1 is higher in “hERG current change (%, negative = inhibition) at 10uM” value: -26.5% for the first, -5.28% for the second.

Going from COc1ccc(C(=O)Nc2ccc(N3CCCCC3)cc2)cc1Br to CC(Oc1cc(F)ccc1[N+](=O)[O-])C(=O)Nc1ccc(S(=O)(=O)N2CCCC2)cc1 (stereo not shown), the “hERG current change (%, negative = inhibition) at 10uM” value rises from -8.48% to -8.24%.

First: O=C(CN1CCCCC1)Nc1ccc(C(F)(F)F)cc1Cl
Second: O=C(CSCc1ccc(Cl)cc1)Nc1ccc(S(=O)(=O)N2CCCCCC2)cc1
The “hERG current change (%, negative = inhibition) at 10uM” value of the first is lower: 5.72% for the first, 6.72% for the second.

Going from CC12CN3CC(C)(CN(C1)C3c1cccs1)C2 (stereo not shown) to Cl.O=C(O)CCN1CCc2ccccc2C1c1cccs1 (stereo not shown), the “hERG current change (%, negative = inhibition) at 10uM” value rises from -4.15% to 22.3%.

Compared with Cc1c(Cl)c([N+](=O)[O-])nn1CCCC(=O)NCCc1ccccc1, O=C(CCc1ccccc1)N/N=C/c1cc(Br)ccc1O is higher in “hERG current change (%, negative = inhibition) at 10uM” value: -8.79% for the first, 11.7% for the second.

Compared with O=C(C1=C[C@@H](c2ccccc2)C[C@@H](OCc2ccc(CO)cc2)O1)N1CCCCCCC1, CN(Cc1ccccc1)C(=O)c1ccc(NC(=O)Cc2cccc(NC(=O)C3CCN(C(=O)C4CCCC4)CC3)c2)cc1 is higher in “hERG current change (%, negative = inhibition) at 10uM” value: -24.1% for the first, 8.22% for the second.

Going from Cc1noc(C)c1S(=O)(=O)N1CCCC(C(=O)Nc2ccc(Cl)cn2)C1 (stereo not shown) to Cc1ccc(S(=O)(=O)N2CCC(C(=O)NCCc3ccc(S(N)(=O)=O)cc3)CC2)cc1, the “hERG current change (%, negative = inhibition) at 10uM” value rises from -26% to 7.78%.

Going from O=C1Nc2ccccc2C1=Nc1cccc(Cl)c1 to CN1CCN(c2ccccc2/C=C2/C(=O)Nc3ccccc32)CC1, the “hERG current change (%, negative = inhibition) at 10uM” value falls from 16.7% to -36.3%.

First: COCc1ccc(CN2CCC(C(=O)Nc3cccc(-c4cscn4)c3)CC2)o1
Second: COC(C(=O)Nc1ccnn1C1CCN(Cc2ccc(Cl)s2)CC1)c1ccccc1 (stereo not shown)
The “hERG current change (%, negative = inhibition) at 10uM” value of the first is lower: -18.9% for the first, -5.29% for the second.

First: C=CC(COCc1ccccc1)N(Cc1ccc(OC)cc1)S(=O)(=O)c1ccccc1Br (stereo not shown)
Second: COc1ccc(OCC(=O)Nc2ccccc2-c2ccccc2)cc1
The “hERG current change (%, negative = inhibition) at 10uM” value of the first is higher: -1.75% for the first, -2.34% for the second.

First: O=C(CNC(=O)C1CCCCC1)OCC(=O)c1ccc(F)cc1
Second: CC(OC(=O)CNC(=O)c1ccc2ccccc2c1)C(=O)NC1CCCCC1C (stereo not shown)
The “hERG current change (%, negative = inhibition) at 10uM” value of the first is higher: 5.44% for the first, -4.63% for the second.

Going from COc1cc(CNC(C)(C)CO)cc(Br)c1OCc1ccc(Cl)cc1Cl to COc1cccc(OC)c1C(=O)NCCOc1cc(C)cc(C)c1, the “hERG current change (%, negative = inhibition) at 10uM” value rises from -39.7% to 4.7%.

Compared with O=C(NC(=S)Nn1cnc2c(cnn2-c2ccccc2)c1=O)c1ccc(Oc2ccccc2)cc1, CSc1ccc(-c2c(C#N)c(N)nc3c2c(C)nn3-c2ccccc2)cc1 is lower in “hERG current change (%, negative = inhibition) at 10uM” value: 16% for the first, -10.5% for the second.

First: CC1CCCN(CC(O)COCc2ccccc2)C1.Cl (stereo not shown)
Second: CC1CCCCN1C(=O)CCc1nnc(Cc2c[nH]c3ccccc23)o1 (stereo not shown)
The “hERG current change (%, negative = inhibition) at 10uM” value of the first is lower: -1.07% for the first, 4.94% for the second.

Going from CCCn1c(N)c(Br)c(=O)[nH]c1=O to CN1CCN(c2nc3c(c(=O)[nH]c(=O)n3C)n2CCCSc2nnnn2-c2ccccc2)CC1, the “hERG current change (%, negative = inhibition) at 10uM” value falls from 13.5% to -51.2%.

Going from C=C[C@@]1(C)CC(=O)[C@]2(O)[C@@]3(C)[C@@H](O)CCC(C)(C)[C@@H]3[C@H](OC(C)=O)[C@H](O)[C@@]2(C)O1 to CC(=O)OC[C@]12CCC(C)=C[C@H]1O[C@@H]1[C@H](O)[C@@H](OC(C)=O)[C@@]2(C)[C@]12CO2, the “hERG current change (%, negative = inhibition) at 10uM” value falls from 7.62% to 3.74%.

Going from S=C(c1c[nH]c2ccc(Br)cc12)N1CCOCC1 to COc1ccc(OCCN2CCOCC2)cc1, the “hERG current change (%, negative = inhibition) at 10uM” value rises from -9.38% to 20.2%.

First: O=C(CSc1ccc(-c2cccnc2)nn1)N1CCCc2ccccc21
Second: CCn1c(=O)cc(OCC(=O)NCc2cccnc2)c2ccccc21
The “hERG current change (%, negative = inhibition) at 10uM” value of the first is lower: -34.9% for the first, 0.488% for the second.

First: O=C1NCCN1CCNS(=O)(=O)c1cc(C(F)(F)F)cc(C(F)(F)F)c1
Second: CCC(=O)N1CCc2cc(Br)cc(S(=O)(=O)CCC(=O)NCCOC)c21
The “hERG current change (%, negative = inhibition) at 10uM” value of the first is lower: 17.2% for the first, 20.7% for the second.

Compared with O=C(CSc1nnc(Cc2ccccc2)n1Cc1ccco1)NC12CC3CC(CC(C3)C1)C2, O=C(c1[nH]ncc1-c1ccccc1)C1CO1 (stereo not shown) is higher in “hERG current change (%, negative = inhibition) at 10uM” value: -43.2% for the first, 16.1% for the second.

Compared with Cn1c(/C=N/Nc2nc3ccccc3[nH]2)nc2ccccc21, COC1=C(Nc2ccccc2)C(=O)c2ccccc2C1=O is higher in “hERG current change (%, negative = inhibition) at 10uM” value: -35.7% for the first, -0.627% for the second.

First: COc1cc(NC(=O)c2ccccc2C)c(OC)cc1NC(=O)CN1CCOCC1
Second: COc1cccc2cc(C(=O)C3=C(O)C(=O)N(CCN4CCOCC4)C3c3ccc(C)o3)oc12 (stereo not shown)
The “hERG current change (%, negative = inhibition) at 10uM” value of the first is lower: -7.78% for the first, -0.475% for the second.

Compared with CCOC(=O)c1[nH]c2c(c1-c1ccc(OC)cc1)C(=O)CC(c1ccc(OC)c(OC)c1)C2 (stereo not shown), COc1ccc(CCNC(=O)COC(=O)Cc2cc(OC)c(OC)c(OC)c2)cc1 is higher in “hERG current change (%, negative = inhibition) at 10uM” value: -10.9% for the first, 11.5% for the second.

Going from CN1C=CC=C/C1=C1\SC(=S)N(N)C1=O to C=C1c2cc(OC)ccc2NC(=O)N1CC, the “hERG current change (%, negative = inhibition) at 10uM” value falls from 26.4% to -5.01%.

Going from O=C(Nc1cccc(Cl)c1)NC1CC2CCC1C2 (stereo not shown) to CCN1C(=O)[C@H]2[C@@H](c3ccc(-c4cccc(Cl)c4)cc3)N3CCCC[C@@]3(C(=O)OC)[C@H]2C1=O.O=C(O)C(F)(F)F, the “hERG current change (%, negative = inhibition) at 10uM” value falls from 9.69% to 1.51%.

Compared with CC1CC(C)CN(C(=O)/C(=C\c2ccccc2)c2ccccc2)C1 (stereo not shown), O=C(O)CCC(=O)N1CCc2cc(S(=O)(=O)N(CCc3ccccc3)Cc3ccccc3)ccc21 is higher in “hERG current change (%, negative = inhibition) at 10uM” value: -27.4% for the first, 56.3% for the second.

First: O=C(O)c1ccc(-n2nncc2-c2ccco2)cc1
Second: CCOC(=O)c1ccc(-n2cccc2/C=C2\NC(=O)NC2=O)cc1
The “hERG current change (%, negative = inhibition) at 10uM” value of the first is higher: 18.1% for the first, 16.3% for the second.

First: COc1cccc(C2=NOC(C(=O)Nc3cccc(C(C)=O)c3)C2)c1OC (stereo not shown)
Second: Br.COc1ccc(OC)c(N2Cc3ccccc3C2=N)c1
The “hERG current change (%, negative = inhibition) at 10uM” value of the first is higher: 1.69% for the first, -41.3% for the second.

Compared with CCC1CCCCN1CCCNC(=O)c1ccc(CS(=O)(=O)Cc2ccccc2F)o1 (stereo not shown), COc1ccc(CN2CCCCC2c2cccnc2)c(OC)c1C (stereo not shown) is lower in “hERG current change (%, negative = inhibition) at 10uM” value: 3.29% for the first, 2.45% for the second.

Going from C/C(=C\C(=O)c1ccc(Cl)cc1)NCc1ccc2c(c1)OCO2 to Cc1ccc(NC(=O)C(=O)C2C(=O)Nc3ccccc32)cc1 (stereo not shown), the “hERG current change (%, negative = inhibition) at 10uM” value rises from 3.43% to 3.99%.

Compared with CCOc1nc(C)ccc1-c1noc(-c2cccnc2)n1, CCCn1nc(NC(=O)c2cccs2)c2cc3cc(OC)ccc3nc21 is lower in “hERG current change (%, negative = inhibition) at 10uM” value: 20.9% for the first, -6.83% for the second.

First: CN(C)c1ccc(C(=O)N2CCCC(CCC(=O)N3CCN(c4ccccn4)CC3)C2)cc1 (stereo not shown)
Second: COc1ccc(C(=O)Nc2c(N)nc(SCC(=O)N3CCC(C)CC3)[nH]c2=O)cc1
The “hERG current change (%, negative = inhibition) at 10uM” value of the first is lower: -7.51% for the first, 20.6% for the second.

First: Cc1cc(C)c(NC(=O)Cn2nnc(C(=O)NCc3ccco3)c2N)c(C)c1
Second: Cc1cc(C)c(NC(=O)CN(C)C(=O)C2CC(=O)N(c3cccc4ccccc34)C2)c(C)c1 (stereo not shown)
The “hERG current change (%, negative = inhibition) at 10uM” value of the first is higher: 13% for the first, -3.25% for the second.

Compared with C[C@]12CC[C@@H]3c4cc(O)c(O)cc4CC[C@H]3[C@@H]1CC[C@@H]2O, C[C@@H]1CC[C@@]2(NC1)O[C@H]1C[C@H]3[C@@H]4CC=C5C[C@@H](O)CC[C@]5(C)[C@H]4CC[C@]3(C)[C@H]1[C@@H]2C is lower in “hERG current change (%, negative = inhibition) at 10uM” value: 24.1% for the first, 18.4% for the second.

Going from CCOc1ccc(NC(=O)CSc2nc(O)c(C)c(=O)n2-c2ccc(F)cc2)cc1 to CC(=O)NS(=O)(=O)c1ccc(NC(=S)NC(=O)COc2ccccc2C)cc1, the “hERG current change (%, negative = inhibition) at 10uM” value rises from -45.8% to -1.41%.

First: CC(C)Cn1[nH]c2c3c(ccc2c1=O)C(=O)c1ccccc1C3=O
Second: NC1=NC[C@H](Cc2ccc(O)cc2)N1CCc1cccc2ccccc12
The “hERG current change (%, negative = inhibition) at 10uM” value of the first is lower: -12.1% for the first, -4.14% for the second.

Going from CCOC(CNC(=O)c1ccc2nc(N3CCC(C)CC3)sc2c1)OCC to CCN(C(=O)CSc1nc2ccccc2c(=O)n1CCOC)C1CCS(=O)(=O)C1 (stereo not shown), the “hERG current change (%, negative = inhibition) at 10uM” value falls from 10.6% to -61.2%.

Compared with Cc1ccc(S(=O)(=O)Nc2ccc(NC(=O)c3cccnc3)cc2)cc1, Cc1ccc(Cl)cc1NS(=O)(=O)c1ccc(-n2cccn2)cc1 is higher in “hERG current change (%, negative = inhibition) at 10uM” value: -18.1% for the first, 1.75% for the second.

In the case of CCCOc1ccc2nc(C)c(CCC)c(SC(=N)N)c2c1.Cl, the “hERG current change (%, negative = inhibition) at 10uM” value is reported as 11.1%.
